Measurements taken from ChEMBL document CHEMBL4888484, “Replenishing the malaria drug discovery pipeline: Screening and hit evaluation of the MMV Hit Generation Library 1 (HGL1) against asexual blood stage Plasmodium falciparum ,using a nano luciferase reporter read-out” (2022).
The campaign covered roughly 4,800 compounds. About 410 (8.5%) showed an effect of 50% or more. The list shows a part of the results.

test system: Plasmodium falciparum; assay: Confirmatory screen in NF54 pLDH assay, in single point, at 2uM, 72h; type: functional, Erythrocyte; conditions: timepoint 72 hour

| Structure (SMILES) | % Inhibition |
| --- | --- |
| COc1cc(C(=O)NCCN2CCOCC2)cc2occc12 | 1% |
| Cc1ccc(N2C(=O)C3C4C=CC(C4=C4CCCC4)C3C2=O)c(C)c1 (centres undefined) | -11% |
| CC1CC(C)(C)CCC1NC(=O)NC1CCN(C)C1=O (centres undefined) | -11% |
| Cc1cc(C)cc(Nc2nc(C)cc(=O)n2CC(=O)Nc2ccc(C)cc2Br)c1 | -8% |
| Cc1ccc(C(=O)NC2c3ccccc3CCC2n2ccnc2)c(=O)[nH]1 (centres undefined) | 0% |
| CC(C)(C)NC(=O)C1CCN(C[C@@H]2CC=CCC2)CC1 | 10% |
| CN(CCCNC(=O)C(=O)Nc1ccn(C)n1)c1cccc(F)c1 | 10% |
| Cc1nnc(NC(=O)[C@H](C)c2ccc(-c3ccccc3)c(F)c2)s1 | -16% |
| CCN1CCC(N(C)C(=O)Cc2csc(-c3cccnc3)n2)CC1 | -8% |
| Cc1ccc(S(=O)(=O)Cc2nc(-c3ccc(C(=O)NCc4ccccc4C)cc3)oc2C)cc1 | -23% |
| CC(C)(NC(=O)OCc1ccccc1)/C(N)=N/O | 4% |
| CCc1ccc(C2CCN(C(C(=O)O)c3cccnc3)C2)cc1 (centres undefined) | -4% |
| Cc1ccc(NC(=O)c2nnn(CC(=O)Nc3ccc4c(c3)OCO4)c2C)cc1F | 6% |
| O=C(Nc1ccccc1)Nc1nnc[nH]1 | 10% |
| COCc1cc(=O)n(CC(=O)Nc2ccc(OC)cc2)c(N2CCCC2)n1 | -9% |
| COc1ccccc1Nc1c(-c2cccs2)nc2ccccn12 | 3% |
| COCCN1CCCCc2cc(C(=O)NC[C@H]3CCN(CC(C)C)C3)sc21 | -9% |
| Cc1cc(C)cc(Nc2nc(C)cc(=O)n2CC(=O)N2CCN(c3ccc(F)cc3)CC2)c1 | -6% |
| O=C(NCc1ncc[nH]1)C1(Cc2nc3ccccc3[nH]2)CCCC1 | 5% |
| O=C(CCn1nc(-c2ccc3c(c2)OCO3)ccc1=O)NC1CCCCC1 | -6% |
| Clc1ccc(-c2noc(CN(Cc3cccs3)Cc3cccs3)n2)cc1 | 6% |
| CCOn1c(-c2ccc(F)cc2)nc2c1OC=NN2OCc1ccccc1 | 7% |
| CCNC(=O)N[C@H]1CO[C@H]2[C@@H]1OC[C@@H]2Nc1nccc(-c2ccc(-c3ccccc3)cc2)n1 | 9% |
| C[C@@H](C1CC1)N(C)S(=O)(=O)Cc1cc(Cl)cc(Cl)c1 | 2% |
| COc1ccc(C(=O)Nc2c(C)nc3ncnn3c2O)cc1 | 8% |
| Cc1c(C2CC2)n[nH]c1NC(=O)C1CC1c1ccccc1 (centres undefined) | 12% |

| Structure (SMILES) | % Inhibition |
| --- | --- |
| CCCCNC(=O)Cc1noc([C@@H]2Cc3ccccc3O2)n1 | -6% |
| O=C(c1ccc2c(c1)OCCCO2)N1CCCCC1 | -15% |
| CC1(C)Oc2cc(S(=O)(=O)NC3CCCCC3)ccc2NC1=O | -7% |
| NC(=O)C1(CNC(=O)c2cccn3c(=O)[nH]nc23)CCCC1 | 0% |
| O=C(Nc1nc(Cc2ccccc2)cs1)C1CCOCC1 | 10% |
| CCOC(=O)C(C)NC(=O)C(C)NC(=O)c1ccc(F)c(C#N)c1 (centres undefined) | 7% |
| COC[C@H]1CCCN1C(=O)C[C@@H]1O[C@H](CNC(=O)Nc2ccccc2)[C@@H](O)[C@H]1O | 0% |
| CC(=O)N[C@H]1CCc2nc(N)sc2C1 | 13% |
| COc1cc2c(cc1OC)CN(c1noc(-c3ccccc3)n1)CC2 | 1% |
| Cc1ccc2nc(-c3cc4ccccc4o3)cn2c1 | 52% |
| CC[C@H](C)N1CCN(Cc2cccc(Oc3ccccc3)c2)CC1 | 9% |
| COc1ccc(OCC(=O)Nc2ccc(N3CCn4c(nc5ccccc54)C3)cc2Cl)cc1 | -14% |
| CN(C)c1ccc(NC(=O)Cn2cnc3ccc(Cl)cc3c2=O)cc1 | -6% |
| CCC[C@]1(C)NC(=O)N(c2csc(-c3ccccc3)n2)C1=O | 3% |
| Fc1cccc(F)c1CNC[C@@H]1NCCc2ccccc21 | 1% |
| Cc1nc(C)c(C(=O)N[C@](C)(c2ccc(Br)cc2)C(C)C)o1 | -13% |
| CC(C)CNCc1cccc(Br)c1 | 14% |
| Cc1c(C(=O)NCCc2ccc(Cl)cc2)oc2ccc3c(c12)[C@@H](O)CC(C)(C)O3 | 10% |
| Oc1ccccc1CCN[C@H]1CCc2ccc(F)cc21 | 95% |
| CCc1nc(CNc2ccc(C)c(S(=O)(=O)NC3CC3)c2C)n[nH]1 | -15% |
| Cc1ccc(CNc2ccc(S(C)(=O)=O)cc2)c(=O)n1C | -9% |
| CC(=O)N1CCc2cc(-c3ccc(C(=O)NCC[C@H](C)N4CCCC4)cc3)ccc21 | 9% |
| Oc1cc2ccccc2cc1-c1nnc(-c2ccccc2)c(-c2ccccc2)n1 | -11% |
| CC(=O)c1ccc(C(C)(C)C)cc1NC(=O)C(C)C | 8% |
| Cc1cc(NC(=O)Nc2ccccc2)c2[nH]c(C(=O)NCCN3CCOCC3)c(-c3ccccc3)c2c1 | 6% |
| c1ccc(C[C@]2(c3ccccc3)CCNC2)cc1 | 11% |

| Structure (SMILES) | % Inhibition |
| --- | --- |
| CC(=O)N1C[C@H]2CN(C(=O)Cc3cccc(Cl)c3)CC[C@@]2(c2nc(C)n[nH]2)C1 | 6% |
| Cc1ccc([C@@H]2c3cccn3CCCN2Cc2cccs2)cc1C | 12% |
| COc1cccc([C@H]2CC(=O)Nc3c2cnn3C)c1 | -11% |
| O=C(NCC1CCCCC1)c1cn[nH]c1-c1ccccc1 | 6% |
| O=C(COC(=O)c1nccc2ccccc12)Nc1cc(F)ccc1Cl | 11% |
| COc1cccc(Cn2c(=O)c3sccc3n(CC(=O)Nc3ccc(N(C)C)cc3)c2=O)c1 | 13% |
| CC1(C)CN(C(=O)CN2CCOCC2=O)C2CCCC21 (centres undefined) | -14% |
| COc1cccc(N2CCN(C(=O)C3CCN(c4nc5cccnc5n(C)c4=O)CC3)CC2)c1 | -7% |
| Cc1ccnc2nc(C(=O)N(CC3CC3)CC(F)(F)F)nn12 | 10% |
| Cc1cc(OC[C@@H](O)CNC(C)(C)CC(C)(C)C)cc(C)c1Cl | 57% |
| Cc1ccc(S(=O)(=O)N2CCN(C(=O)CCn3cncn3)CC2)cc1 | -16% |
| Cc1nc2c(-c3ccco3)nc(=O)n(CC(=O)Nc3cccc4ccccc34)c2s1 | -1% |
| O=C(NCCCn1cccn1)[C@H]1CN(S(=O)(=O)c2cccnc2)CC12CCCCC2 | 10% |
| CC[C@](O)(C(=O)N(C)Cc1ncon1)c1cccc(Cl)c1 | -13% |
| Cc1cc(NCCc2nccn2C)ncn1 | -4% |
| Clc1ccccc1-c1c[nH]c([C@@H]2CCCN2)n1 | 6% |
| COc1c(O)ccc2c(=O)c3c(O)cc(O)c(OC)c3n(C)c12 | 4% |
| CC1CCC(NC(=O)N2CCC(OC[C@H]3CCCO3)CC2)CC1 (some centres undefined) | -6% |
| COC1CCCCC1NC(=O)c1ccc(-c2noc(C(F)(F)F)n2)cc1 (centres undefined) | 8% |
| CC[C@@]1(C)CCCN(C(=O)Cc2c(C)noc2Cl)C1 | 87% |
| Cc1cnc(NC(=O)C2CCC(=O)N(C)C2c2cccc(F)c2)s1 (centres undefined) | 2% |
| c1cn(C[C@@H]2CCCN2c2nc(C3CCCC3)ns2)nn1 | -8% |
| CCOC(=O)c1nc(-c2cccnc2)cs1 | -8% |
| Cn1c(C(=O)N2CC[C@H](N)C2)ccc1-c1cccc(Br)c1 | 11% |
| Cc1cccc(NC(=O)c2cc(Cl)c[nH]2)n1 | 6% |
| COC(=O)C1C2CCC(C2)C1NC(=O)c1ccncc1 (centres undefined) | 2% |

| Structure (SMILES) | % Inhibition |
| --- | --- |
| CCn1cc(-c2nc(-c3ccccc3C)no2)c(=O)c2cc(F)c(N3CCOCC3)cc21 | 36% |
| OCCN(Cc1cccnc1)c1cc(-c2ccccc2)nc2ncnn12 | 10% |
| CCc1ccc(/C=C/c2c[nH]c3ccccc23)[n+](CC)c1 | 88% |
| COc1nn(C)cc1C(=O)N1CCC[C@H](Oc2cccnn2)C1 | 4% |
| CC[C@H](O)CN1CCC(Nc2ncnc3cc(Cl)ccc23)CC1 | 75% |
| CCNC(=O)c1csc(COc2ccc3c(c2)[C@H](c2ccc(C)cc2)N(C(=O)CC(C)C)CC3)n1 | 45% |
| CN(C)C(=O)NCCc1ncc(C(F)(F)F)cc1Cl | 11% |
| CCCN1C(=O)c2ccccc2N2C(=O)CC[C@@]12C(=O)Nc1ccccc1 | 97% |
| C[C@@H](CCc1ccccc1)NC(=O)c1cc2c(Cl)ccc3c2n1CCO3 | 12% |
| COc1cccc(Cn2nccc2NC(=O)C2CCOCC2)c1OC | 1% |
| CNC(=O)C(c1ccccc1)C(C(=O)NC)c1cccc2ccccc12 (centres undefined) | 1% |
| O=C(Nc1[nH]c(=O)ncc1F)c1cc(F)c(F)cc1Br | 86% |
| CC(=O)N1C(C(=O)O)Cc2c([nH]c3ccccc23)C1c1ccc2c(c1)OCO2 (centres undefined) | 5% |
| CCOC(=O)Cc1csc(NC(=O)Cc2c[nH]c3ccccc23)n1 | -8% |
| Cc1cc(C(=O)N2CC3CCCC3C2C(N)=O)c2c(C)noc2n1 (centres undefined) | -5% |
| COCCN(c1ccncc1)S(C)(=O)=O | 10% |
| O=C(CCCc1ccc2c(c1)CC(=O)N2)Nc1ccc2c(c1)C(=O)NC2 | -14% |
| CN(C)CC(O)COc1ccc(S(=O)(=O)c2ccc(OCC(O)CN(C)C)c(Cl)c2)cc1Cl (centres undefined) | 61% |
| Cc1cc(Br)ccc1CN(C)S(C)(=O)=O | -4% |
| CCn1c(=O)c(N2CCN(C(=O)Nc3ccccc3Cl)CC2)nc2ccccc21 | 0% |
| CC1=N[C@H](N2CCN(c3ccccc3)CC2)NC(O)=C1 | 1% |
| Cc1ccc(-c2ccnn2C)cc1NC(=O)c1cscn1 | 4% |
| CCN(CC)c1ccc(NS(=O)(=O)c2cc(S(=O)(=O)c3ccc(Cl)c(S(=O)(=O)Nc4ccc(N(CC)CC)cc4)c3)ccc2Cl)cc1 | 5% |
| Cc1cc(F)ccc1-n1ccc(C(=O)N(C[C@H]2CCOC2)C2CC2)n1 | -12% |
| Cc1cccc(CNC(=O)c2n[nH]c3c2CN(C(=O)c2ccoc2)CC3)c1 | -3% |
| O=C(O)c1ccc(NS(=O)(=O)c2cc(Cl)ccc2OC[C@H]2CCCCO2)cc1 | 8% |
